{"source": "PubChem BioAssay AID1346428", "about": "(National Center for Advancing Translational Sciences (NCATS), 2018)", "note": "Where “and” joins values, the source holds several entries; their conditions need not be identical. Equal entries are not always repeated. In all, about 48,000 compounds went through this assay and about 1,200 (2.5%) were called active. Not shown: some 2% with an inconclusive outcome.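 How the source made its calls: active means activation of at least 60% and not above a set upper limit (about 1 call in 100 departs from these limits); inconclusive means activation of 40% to 60%, or above that upper limit; inactive means activation under 40%.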 The list shows a part of the results."}
{"molecular_target": "Probable G-protein coupled receptor 32 (Homo sapiens) (UniProt O75388)", "sequence (O75388 whole entry, looked up)": "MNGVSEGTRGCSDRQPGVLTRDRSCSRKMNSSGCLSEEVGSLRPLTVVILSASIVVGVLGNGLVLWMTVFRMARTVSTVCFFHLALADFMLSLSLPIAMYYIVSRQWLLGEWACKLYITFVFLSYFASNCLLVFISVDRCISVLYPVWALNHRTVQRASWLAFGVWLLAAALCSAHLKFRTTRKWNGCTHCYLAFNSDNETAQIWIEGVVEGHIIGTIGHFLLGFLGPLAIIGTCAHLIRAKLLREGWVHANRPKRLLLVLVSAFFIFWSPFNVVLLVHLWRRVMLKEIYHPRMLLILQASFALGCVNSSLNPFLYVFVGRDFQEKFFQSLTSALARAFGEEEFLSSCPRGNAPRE", "assay": "qHTS for Agonists of Human Resolvin D1 Receptor DRV1", "details": "CHO-K1 GPR32 beta-arrestin PathHunter luminescence, 90 min; at 76.9 µM; stronger effect = higher value; zero percent set by DMSO-only wells", "how_it_was_run": "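Using DMSO wells as EC0, agonist-induced signal was taken as chemiluminescence from beta-Gal reconstituted upon beta-arrestin recruitment to GPR32 in CHO-K1 cells after 90 min compound treatment.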"}
{"smiles": "CC1CCCN(CCCNC(=O)c2ccc3c(c2)N(Cc2ccccc2F)C(=O)c2ccccc2S3(=O)=O)C1", "note": "(stereo not given)", "activation": "inactive: -4.66%"}
{"smiles": "Cc1ccccc1-c1nc(CN2CCC(C(=O)NCc3ccccc3Cl)CC2)c(C)o1", "activation": "inactive: 3.3%"}
{"smiles": "CCOc1ccc(N2CC(NC(=O)CCc3ccccc3)CC2=O)cc1", "note": "(stereo not given)", "activation": "inactive: -0.0653%"}
{"smiles": "CC(C)(C)c1ccc(NC(=O)C2CCCN(c3cnccn3)C2)cc1", "note": "(stereo not given)", "activation": "inactive: 1.28%"}
{"smiles": "Cc1ccc2c(c1)c1c(c(=O)n(-c3cccc(Cl)c3)c(=O)n1CC(=O)Nc1c(C)cccc1C)n2C", "activation": "inactive: -2.68%"}
{"smiles": "CCOC(=O)c1ccccc1NC(=O)CSc1nc2cn(CC)nc2c(=O)n1Cc1ccc(Cl)cc1", "activation": "inactive: -8%"}
{"smiles": "O=C(CC1N=C2c3ccccc3N=C(SCc3ccc(Cl)cc3)N2C1=O)NCc1cccs1", "note": "(stereo not given)", "activation": "inactive: -12.2%"}
{"smiles": "COc1ccc(N2CCN(C(=O)C3CCN(S(=O)(=O)c4cccs4)CC3)CC2)cc1", "activation": "inactive: 26.3%"}
{"smiles": "Cc1ccc(CN2CCSc3ccc(C(=O)N4CCN(c5ccccc5)CC4)cc32)cc1", "activation": "inactive: -30.5%"}
{"smiles": "O=c1c2cc3c(cc2n(Cc2ccc(Cl)cc2)c(=O)n1Cc1nc(-c2ccccc2)no1)OCO3", "activation": "inactive: -0.0942%"}
{"smiles": "Cc1ccc(-n2c(Cc3ccccc3)nnc2SCc2nc(-c3cccs3)no2)cc1", "activation": "inactive: -40.1%"}
{"smiles": "Cc1ccc(/C=C/c2onc(C)c2S(=O)(=O)N2CCC(C(=O)N3CCC(N(C)C(C)C)CC3)CC2)cc1", "activation": "inactive: -26.7%"}
{"smiles": "Cc1ccc(C)c(CN2CCCN(Cc3ccc(F)cc3)S2(=O)=O)c1", "activation": "inactive: -21.6%"}
{"smiles": "O=C(Nc1cccc(Cl)c1)c1cnc2sc(N3CCCC3)nn2c1=O", "activation": "inactive: -16.6%"}
{"smiles": "CN1C(=O)Cc2cc(S(=O)(=O)N3CCN(c4ccccc4F)CC3)ccc21", "activation": "inactive: -11.6%"}
{"smiles": "Cc1ccc(-c2noc(C(C)NS(=O)(=O)c3ccc(C)cc3)n2)cc1", "note": "(stereo not given)", "activation": "inactive: -4.04%"}
{"smiles": "COc1ccc(CNC(=O)Cc2c(C)c3cc4c(C)coc4c(C)c3oc2=O)cc1", "activation": "inactive: -7.96%"}
{"smiles": "Cc1nc(-n2nc(C)c(Cc3ccccc3Cl)c2C)sc1C(=O)Nc1ccccc1F", "activation": "inactive: 5.41%"}
{"smiles": "CC(C)c1ccc(C2=CC(c3ccc(C(C)C)cc3)n3nnnc3N2)cc1", "note": "(stereo not given)", "activation": "inactive: -33.4%"}
{"smiles": "Cc1ccc2nc3c(cc(C(=O)NCC4CCCO4)c(=N)n3C(C)C)c(=O)n2c1", "note": "(stereo not given)", "activation": "inactive: -2.51%"}
{"smiles": "CC(=O)c1ccc(S(=O)(=O)N2CCn3cccc3C2c2ccc(C)cc2)cc1", "note": "(stereo not given)", "activation": "inactive: -14.7%"}
{"smiles": "CCOC(=O)Cn1c(=O)n(CC2CCCO2)c2nc(-c3ccc(C)cc3)nc(C(N)=O)c21", "note": "(stereo not given)", "activation": "inactive: -1.43%"}
{"smiles": "CN1C(=O)CC[C@H]1c1cccnc1", "activation": "inactive: 28.3% and inactive: 3.74%"}
{"smiles": "COc1ccc(Cl)cc1NC(=O)Cc1ccc(NC(=O)N2CCCCc3ccccc32)cc1", "activation": "inactive: 3.59%"}
{"smiles": "COc1ccccc1NC(=O)C(=O)NCC(c1ccc2c(c1)OCO2)N1CCOCC1", "note": "(stereo not given)", "activation": "inactive: 8.35%"}
{"smiles": "Cc1ccccc1CNC(=O)c1cnc2sc(N3CCOCC3)nn2c1=O", "activation": "inactive: -6.31%"}
{"smiles": "Cc1ccc(NC(=O)CN(C)S(=O)(=O)c2ccc3c(c2)n(C)c(=O)c(=O)n3C)cc1C", "activation": "inactive: -5.47%"}
{"smiles": "Cc1ccc(-c2nc3c4ccccc4n(CC(=O)N4CCN(c5ccccc5F)CC4)c(=O)n3n2)cc1", "activation": "inactive: 5.46%"}
{"smiles": "Cc1nc(SC(C)C(=O)Nc2ccccc2C)cc(-c2ccccc2)n1", "note": "(stereo not given)", "activation": "inactive: -18.5%"}
{"smiles": "COc1ccc(CNC(=O)c2cc(-c3ccc(OC)cc3)on2)cc1", "activation": "inactive: 0.708%"}
{"smiles": "Cc1ccc(-n2nnnc2CNC(=O)C(C)(C)C)cc1C", "activation": "inactive: -6.75%"}
{"smiles": "CCOc1ccc(CCNC(=O)Cn2nc(C)n3c(cc4occc43)c2=O)cc1OCC", "activation": "inactive: -44.6%"}
{"smiles": "Cc1ccccc1C(=O)c1cccn1CC(=O)NCc1ccccc1", "activation": "inactive: -21.7%"}
{"smiles": "Cc1ccc(C)c(OCCn2c(-c3ccc(Cl)cc3)nc3ccccc3c2=O)c1C", "activation": "inactive: 4.24%"}
{"smiles": "CCn1c2ccccc2c2nnc(SCC(=O)O)nc21", "activation": "inactive: -9.49%"}
{"smiles": "CCOC(=O)c1ccccc1O", "activation": "inactive: 7.48%"}
{"smiles": "COc1ccc(CNC(=O)CSc2nc(-c3ccc(OC)cc3)cc(C(F)(F)F)n2)cc1", "activation": "inactive: -8.61%"}
{"smiles": "CC(C)Oc1ccc(CNC(=O)c2cc3ccccn3n2)cc1", "activation": "inactive: 33.6%"}
{"smiles": "CC(=O)Nc1ccc(S(=O)(=O)N2CCC(n3c(C(F)(F)F)nc4cccnc43)CC2)cc1", "activation": "inactive: 12.4%"}
{"smiles": "COc1cccc(-c2cc(C(=O)Nc3cc(Cl)ccc3O)on2)c1", "activation": "inactive: -20.6%"}
{"smiles": "Cc1ccc(CCNC(=O)CCCn2nc(C)c3c(C)n(-c4ccccc4)nc3c2=O)cc1", "activation": "inactive: 13.7%"}
{"smiles": "COC(=O)c1ccc(NC(=O)CCS(=O)(=O)c2ccc(Br)cc2)cc1", "activation": "inactive: -9.15%"}
{"smiles": "CC(=O)c1cc2c(cc1N/C(=N/S(=O)(=O)c1ccc(C)cc1)c1ccccc1)OCO2", "activation": "inactive: -37.3%"}
{"smiles": "Cc1cc(C)c(NC(=O)Cn2c(=O)n(CC(=O)NCc3ccccc3Cl)c(=O)c3sccc32)c(C)c1", "activation": "inactive: -4.67%"}
{"smiles": "COC(=O)C(NC(=O)CC(C)C)(Nc1nc2c(s1)CCCC2)C(F)(F)F", "note": "(stereo not given)", "activation": "inactive: -14.5%"}
{"smiles": "CCOC(=O)c1c(NC(=O)/C=C/c2ccc(OCC)cc2)sc(C)c1C", "activation": "inactive: 8.88%"}
{"smiles": "CCOc1ccc(CNCc2c(C(=O)O)n(Cc3ccccc3F)c3cc(OC)ccc23)cc1", "activation": "inactive: -10.5%"}
{"smiles": "CCc1cnc2c(c1SCC(=O)N1CCCCC1)c(=O)n(C)c(=O)n2C", "activation": "inactive: -5.25%"}
{"smiles": "CCCCOc1ccc(C(=O)NCCS(=O)(=O)N2CCN(c3ccc(F)cc3)CC2)cc1", "activation": "inactive: -9.03%"}
{"smiles": "O=C(CSc1nc2ccccc2nc1Cc1ccccc1)NCc1ccccc1Cl", "activation": "inactive: -1.01%"}
{"smiles": "COc1ccc(NC(=O)CSc2nc(-c3cccs3)cc(C(F)(F)F)n2)cc1OC", "activation": "inactive: 21.7%"}
{"smiles": "CCC(=O)N1CCc2cc(Br)cc(S(=O)(=O)N3CCC(C(=O)Nc4ccc(OC)cc4)CC3)c21", "activation": "inactive: -7.73%"}
{"smiles": "COc1ccc(C(=O)NC2(C(F)(F)F)C(=O)NC(C)=C2C#N)cc1OC", "note": "(stereo not given)", "activation": "inactive: -2.1%"}
{"smiles": "COc1ccc(-c2cc(C(=O)O)n(Cc3ccccc3)n2)cc1", "activation": "inactive: -12%"}
{"smiles": "COc1ccc(CN(C(=O)COc2ccccc2OC)C2CCS(=O)(=O)C2)cc1", "note": "(stereo not given)", "activation": "inactive: 2.25%"}
{"smiles": "CCCCN(CC)CCCNC(=O)c1sc2nc(C)cc(C)c2c1-n1cccc1", "activation": "inactive: -3.77%"}
{"smiles": "CCc1ccc(NC(=O)c2ccc3c(O)c(S(=O)(=O)c4ccc(Cl)cc4)c(=O)[nH]c3c2)cc1", "activation": "inactive: -3.58%"}
{"smiles": "Cc1cccc(OC(C)C(=O)Nc2ncn[nH]2)c1", "note": "(stereo not given)", "activation": "inactive: 8.4%"}
{"smiles": "Cc1ccc(S(=O)(=O)N(CC(O)Cn2c3ccccc3c3ccccc32)c2cccc(C(N)=O)c2)cc1", "note": "(stereo not given)", "activation": "active: 85.6%"}
{"smiles": "Cc1ccc(C)c(NC(=O)CN2C(=O)CCc3ccccc32)c1", "activation": "inactive: -1.77%"}
{"smiles": "Cc1cccc2nc(-c3ccco3)c(Nc3ccc4c(c3)OCO4)n12", "activation": "inactive: -12%"}
{"smiles": "CCOC(=O)C1CCCN(S(=O)(=O)c2ccc(F)c(C(=O)Nc3ccc(F)c(F)c3)c2)C1", "note": "(stereo not given)", "activation": "inactive: -19%"}
{"smiles": "CS(=O)(=O)OCCCCOS(C)(=O)=O", "activation": "inactive: -17.2%"}
{"smiles": "CCc1nn2c(=O)cc(COC(=O)c3cccc(NC(=O)c4ccccc4Cl)c3)nc2s1", "activation": "inactive: -10.8%"}
{"smiles": "CCc1ccc2c(c1)c(=O)c(S(=O)(=O)c1ccc(F)cc1)cn2CC(=O)Nc1ccc(C)cc1C", "activation": "inactive: -4.62%"}
{"smiles": "Cc1ccc(CNC(=O)C2CCCN(S(=O)(=O)c3cccc4nsnc34)C2)cc1", "note": "(stereo not given)", "activation": "inactive: -3.37%"}
{"smiles": "Cc1ccc2c(c1)C(c1ccc(F)cc1)N(C(=O)COc1ccc(Cl)cc1Cl)CC(=O)N2", "note": "(stereo not given)", "activation": "inactive: -31.6%"}
{"smiles": "O=C(CSc1c2c(nc3ccc(Cl)cc13)CCCC2)N1CCN(c2cccc(Cl)c2)CC1", "activation": "inactive: -31.5%"}
{"smiles": "COc1ccc(CNC(=O)c2cnc3sc(N4CCCC4)nn3c2=O)cc1OC", "activation": "inactive: 6.88%"}
{"smiles": "Cc1cccc(NC(=O)c2ccc(N(Cc3ccccc3)S(C)(=O)=O)cc2)c1", "activation": "inactive: 45.2%"}
{"smiles": "CCN(CCCNC(=O)c1cc2c(=O)n(C)c3ccccc3c2s1)Cc1ccccc1", "activation": "inactive: 4.81%"}
{"smiles": "Cc1cc2ncn(CCCCOc3ccccc3)c2cc1C", "activation": "inactive: -52.1%"}
{"smiles": "CCOC(=O)c1cccc(NC(=O)CN2C(=O)c3ccccc3Sc3ncccc32)c1", "activation": "active: 72%"}
{"smiles": "COc1cc(-c2nnn(CC(=O)Nc3ccc(OC(F)(F)F)cc3)n2)cc(OC)c1OC", "activation": "inactive: 25.7%"}
{"smiles": "CCOC(=O)c1c(C)[nH]c(CCC(=O)Nc2cc(C)ccc2OC)c1C", "activation": "inactive: -25%"}
{"smiles": "CC1CCC(NC(=O)c2ccc3c(c2)N(Cc2ccccc2)C(=O)c2ccccc2S3=O)CC1", "note": "(stereo not given)", "activation": "inactive: -15.1%"}
{"smiles": "Cc1ccc(C(=O)NCc2ccc(N(C)C)cc2)cc1NC(=O)c1nsc2ccccc12", "activation": "inactive: -32.5%"}
{"smiles": "COc1cc(NC(=O)CC2C(=O)N(c3ccc(Cl)cc3)C(=O)N2Cc2cccs2)cc(OC)c1", "note": "(stereo not given)", "activation": "inactive: -17.7%"}
{"smiles": "CN1C(C(=O)Nc2ccc(F)cc2F)=CC(c2ccco2)=NS1(=O)=O", "activation": "inactive: -13.7%"}
{"smiles": "O=C(CSCc1ccccc1Cl)N1CCN(c2ccc(F)cc2)CC1", "activation": "inactive: -24%"}
{"smiles": "Cc1nnc(NCc2ccccc2)c2c1nnn2Cc1ccccc1Cl", "activation": "inactive: -22.3%"}
{"smiles": "COc1ccccc1CNC(=O)C1CCCN(S(=O)(=O)c2ccc3c(c2)CCCN3C(C)=O)C1", "note": "(stereo not given)", "activation": "inactive: -8.97%"}
{"smiles": "O=C(Cn1ncc2c1-c1ccccc1OC2)N1CCN(c2ccccc2F)CC1", "activation": "active: 92.1%"}
{"smiles": "Cc1cccn2c(=O)c(C(=O)NCCCN3CCCCC3C)c(O)nc12", "note": "(stereo not given)", "activation": "inactive: 1.49%"}
{"smiles": "Cc1cc2oc(C(=O)Nc3c(C(=O)Nc4ccccc4)oc4ccccc34)cc(=O)c2cc1C", "activation": "inactive: 1.6%"}
